# Results as given in the supplement of paper PMC8728848.
# The list shows a part of the results.
# B1: DC-ASGPR Long (Homo sapiens) (protein)
# chain: MTRTYENFQYLENKVKVQGFKNGPLPLQSLLQRLRSGPCHLLLSLGLGLLLLVIICVVGFQNSKFQRDLVTLRTDFSNFTSNTVAEIQALTSQGSSLEETIASLKAEVEGFKQERQAGVSELQEHTTQKAHLGHCPHCPSVCVPVHSEMLLRVQQLVQDLKKLTCQVATLNNNASTEGTCCPVNWVEHQDSCYWFSHSGMSWAEAEKYCQLKNAHLVVINSREEQNFVQKYLGSAYTWMGLSDPEGAWKWVDGTDYATGFQNWKPGQPDDWQGHGLGGGEDCAHFHPDGGWNDDVCQRPYHWVCEAGLGQTSQESH
# Legend:
# Assay in all cases: glycan array binding signal (z-score within array); higher = stronger binding
# Details in all cases: glycan notation: IUPAC condensed, linker removed
# [1] = target: Neu5Ac(a2-6)Gal(b1-4)GlcNAc(b1-2)Man(a1-3)[GlcNAc(b1-4)][Neu5Ac(a2-6)Gal(b1-4)GlcNAc(b1-2)Man(a1-6)]Man(b1-4)GlcNAc(b1-4)GlcNAc
# Summary of the method: (§1)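 Columns mapping to the same glycan were averaged after glycan names were converted to IUPAC-condensed notation. The data come from 3228 arrays in the Consortium for Functional Glycomics database, limited to those with an available protein sequence. Binding is reported as a within-array Z-score averaged across arrays of one protein sequence and across linkers.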
# [2] = target: Neu5Ac(a2-6)Gal(b1-4)GlcNAc(b1-2)Man(a1-3)[Man(a1-6)]Man(b1-4)GlcNAc(b1-4)GlcNAc
# Summary of the method: as §1
# [3] = target: Neu5Ac(a2-6)Gal(b1-4)GlcNAc(b1-2)Man(a1-3)[Neu5Ac(a2-3)Gal(b1-4)GlcNAc(b1-2)Man(a1-6)]Man(b1-4)GlcNAc(b1-4)GlcNAc
# Summary of the method: as §1
# [4] = target: Neu5Ac(a2-6)Gal(b1-4)GlcNAc(b1-2)Man(a1-3)[Neu5Ac(a2-6)Gal(b1-4)GlcNAc(b1-2)Man(a1-6)]Man(b1-4)GlcNAc(b1-4)GlcNAc
# Summary of the method: as §1
# [5] = target: Neu5Ac(a2-6)Gal(b1-4)GlcNAc(b1-2)Man(a1-3)[Neu5Ac(a2-6)Gal(b1-4)GlcNAc(b1-2)Man(a1-6)]Man(b1-4)GlcNAc(b1-4)[Fuc(a1-6)]GlcNAc
# Summary of the method: as §1
# [6] = target: Neu5Ac(a2-6)Gal(b1-4)GlcNAc(b1-2)Man(a1-6)Man(b1-4)GlcNAc(b1-4)GlcNAc
# Summary of the method: as §1
# [7] = target: Neu5Ac(a2-6)Gal(b1-4)GlcNAc(b1-2)Man(a1-6)[Gal(b1-4)GlcNAc(b1-2)Man(a1-3)]Man(b1-4)GlcNAc(b1-4)GlcNAc
# Summary of the method: as §1
# [8] = target: Neu5Ac(a2-6)Gal(b1-4)GlcNAc(b1-2)Man(a1-6)[GlcNAc(b1-2)Man(a1-3)]Man(b1-4)GlcNAc(b1-4)GlcNAc
# Summary of the method: as §1
# [9] = target: Neu5Ac(a2-6)Gal(b1-4)GlcNAc(b1-2)Man(a1-6)[Man(a1-3)]Man(b1-4)GlcNAc(b1-4)GlcNAc
# Summary of the method: as §1
# [10] = target: Neu5Ac(a2-6)Gal(b1-4)GlcNAc(b1-2)[Neu5Ac(a2-6)Gal(b1-4)GlcNAc(b1-4)]Man(a1-3)[GlcNAc(b1-4)][Neu5Ac(a2-6)Gal(b1-4)GlcNAc(b1-2)[Neu5Ac(a2-6)Gal(b1-4)GlcNAc(b1-6)]Man(a1-6)]Man(b1-4)GlcNAc(b1-4)GlcNAc
# Summary of the method: as §1
# [11] = target: Neu5Ac(a2-6)Gal(b1-4)GlcNAc(b1-2)[Neu5Ac(a2-6)Gal(b1-4)GlcNAc(b1-4)]Man(a1-3)[GlcNAc(b1-4)][Neu5Ac(a2-6)Gal(b1-4)GlcNAc(b1-4)Man(a1-6)]Man(b1-4)GlcNAc(b1-4)GlcNAc
# Summary of the method: as §1
# [12] = target: Neu5Ac(a2-6)Gal(b1-4)GlcNAc(b1-2)[Neu5Ac(a2-6)Gal(b1-4)GlcNAc(b1-6)]Man(a1-6)[Neu5Ac(a2-6)Gal(b1-4)GlcNAc(b1-2)Man(a1-3)][GlcNAc(b1-4)]Man(b1-4)GlcNAc(b1-4)GlcNAc
# Summary of the method: as §1
# [13] = target: Neu5Ac(a2-6)Gal(b1-4)GlcNAc(b1-3)Gal(b1-3)GlcNAc
# Summary of the method: as §1
# [14] = target: Neu5Ac(a2-6)Gal(b1-4)GlcNAc(b1-3)Gal(b1-4)GlcNAc
# Summary of the method: as §1
# [15] = target: Neu5Ac(a2-6)Gal(b1-4)GlcNAc(b1-3)Gal(b1-4)GlcNAc(b1-2)Man(a1-3)[Neu5Ac(a2-6)Gal(b1-4)GlcNAc(b1-3)Gal(b1-4)GlcNAc(b1-2)Man(a1-6)]GalNAc
# Summary of the method: as §1
# [16] = target: Neu5Ac(a2-6)Gal(b1-4)GlcNAc(b1-3)Gal(b1-4)GlcNAc(b1-3)Gal(b1-4)GlcNAc
# Summary of the method: as §1
# [17] = target: Neu5Ac(a2-6)Gal(b1-4)GlcNAc(b1-3)Gal(b1-4)GlcNAc(b1-3)Gal(b1-4)GlcNAc(b1-2)Man(a1-3)[Neu5Ac(a2-6)Gal(b1-4)GlcNAc(b1-3)Gal(b1-4)GlcNAc(b1-3)Gal(b1-4)GlcNAc(b1-2)Man(a1-6)]GalNAc
# Summary of the method: as §1
# [18] = target: Neu5Ac(a2-6)Gal(b1-4)GlcNAc(b1-3)Gal(b1-4)GlcNAc(b1-3)GalNAc
# Summary of the method: as §1
# [19] = target: Neu5Ac(a2-6)Gal(b1-4)GlcNAc(b1-3)Gal(b1-4)GlcNAc(b1-3)[Neu5Ac(a2-6)Gal(b1-4)GlcNAc(b1-3)Gal(b1-4)GlcNAc(b1-6)]GalNAc
# Summary of the method: as §1
# [20] = target: Neu5Ac(a2-6)Gal(b1-4)GlcNAc(b1-3)Gal(b1-4)GlcNAc(b1-6)[Gal(b1-3)]GalNAc
# Summary of the method: as §1
# [21] = target: Neu5Ac(a2-6)Gal(b1-4)GlcNAc(b1-3)Gal(b1-4)[Fuc(a1-3)]GlcNAc(b1-3)Gal(b1-4)[Fuc(a1-3)]GlcNAc
# Summary of the method: as §1
# [22] = target: Neu5Ac(a2-6)Gal(b1-4)GlcNAc(b1-3)GalNAc
# Summary of the method: as §1
# [23] = target: Neu5Ac(a2-6)Gal(b1-4)GlcNAc(b1-3)[Neu5Ac(a2-6)Gal(b1-4)GlcNAc(b1-6)]GalNAc
# Summary of the method: as §1
# [24] = target: Neu5Ac(a2-6)Gal(b1-4)GlcNAc(b1-6)GalNAc
# Summary of the method: as §1
# [25] = target: Neu5Ac(a2-6)Gal(b1-4)GlcNAc(b1-6)[Gal(b1-3)GlcNAc(b1-3)]Gal(b1-4)Glc
# Summary of the method: as §1
# [26] = target: Neu5Ac(a2-6)Gal(b1-4)GlcNAc(b1-6)[Gal(b1-3)]GalNAc
# Summary of the method: as §1
# [27] = target: Neu5Ac(a2-6)Gal(b1-4)GlcNAc6S
# Summary of the method: as §1
# Neu5Ac(a2-6)GalNAc = target: Neu5Ac(a2-6)GalNAc
# Summary of the method: as §1
# [28] = target: Neu5Ac(a2-6)GalNAc(b1-4)GlcNAc
# Summary of the method: as §1
# [29] = target: Neu5Ac(a2-6)GalNAc(b1-4)GlcNAc6S
# Summary of the method: as §1
# [30] = target: Neu5Ac(a2-6)GlcNAc(b1-4)GlcNAc
# Summary of the method: as §1
binder,measurement,setting,value
B1,glycan array binding signal (z-score),[1],-0.495
same,glycan array binding signal (z-score),[2],-0.249
same,glycan array binding signal (z-score),[3],-0.016
same,glycan array binding signal (z-score),[4],-0.115
same,glycan array binding signal (z-score),[5],-0.343
same,glycan array binding signal (z-score),[6],-0.263
same,glycan array binding signal (z-score),[7],-0.434
same,glycan array binding signal (z-score),[8],-0.219
same,glycan array binding signal (z-score),[9],-0.516
same,glycan array binding signal (z-score),[10],-0.513
same,glycan array binding signal (z-score),[11],-0.285
same,glycan array binding signal (z-score),[12],-0.533
same,glycan array binding signal (z-score),[13],-0.236
same,glycan array binding signal (z-score),[14],-0.735
same,glycan array binding signal (z-score),[15],0.57
same,glycan array binding signal (z-score),[16],-0.28
same,glycan array binding signal (z-score),[17],1.75
same,glycan array binding signal (z-score),[18],-0.693
same,glycan array binding signal (z-score),[19],-0.223
same,glycan array binding signal (z-score),[20],-0.527
same,glycan array binding signal (z-score),[21],-0.245
same,glycan array binding signal (z-score),[22],0.262
same,glycan array binding signal (z-score),[23],-0.38
same,glycan array binding signal (z-score),[24],-0.224
same,glycan array binding signal (z-score),[25],-0.38
same,glycan array binding signal (z-score),[26],-0.733
same,glycan array binding signal (z-score),[27],0.116
same,glycan array binding signal (z-score),Neu5Ac(a2-6)GalNAc,0.918
same,glycan array binding signal (z-score),[28],1.27
same,glycan array binding signal (z-score),[29],-0.098
same,glycan array binding signal (z-score),[30],-0.437
